Data reported in a collection of fitness landscapes (doi:10.1016/j.celrep.2020.107928).
In all, about 81,000 sequences were measured (“one-hybrid fitness for binding parS DNA”: median about -0.17, highest 2% from about 0.51 on). Some of the results follow.

B1: Caulobacter ParB omega fusion; a variant is named by its letters at X, in order, B8GW30 (parent)
chain: MESVVVGEPGMSEGRRGLGRGLSALLGEVDAAPAQAPGEQLGGSREAPIEILQRNPDQPRRTFREEDLEDLSNSIREKGVLQPILVRPSPDTAGEYQIVAGERAWRAAQRAGLKTVPIMVRELDDLAVLEIGIIENVQRADLNVLEEALSYKVLMEKFERTQENIAQTIGKSXSHVANXMRLLXLPDEVQSYLVSGELTAXHARAIAAAADPVALAKQIIEGGLSVRETEALARKAPNLSAGKSKGGRPPRVKDTDTQALESDLSSVLGLDVSIDHRGSTGTLTITYATLEQLDDLCNRLTRGI

Variants of: B1
Assay: one-hybrid fitness for binding parS DNA (scaled: cognate 1, non-cognate 0); higher = stronger binding
Details: with parS DNA site
In short: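 Values were rescaled so that cognate is 1 and non-cognate is 0. Each is a fitness, the log change in a variant's read ratio to wild type from Illumina reads of plasmids before and after selection, with three replicate libraries pooled and variants under 10 reads dropped. Selection of the Caulobacter ParB libraries, four specificity codons randomised, used E. coli USO with a HIS3 reporter, site 19 bp from the promoter, on M9-minus-histidine with 0.1 mM IPTG and 5 mM 3-AT for 48 hours at 37°C.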

Variant | one-hybrid fitness for binding parS DNA
TKLC | ≤ 0.2
KENY | ≤ 0.2
NMRG | ≤ 0.2
FNSR | ≤ 0.2
FKKA | ≤ 0.2
PMCL | ≤ 0.2
PMVK | ≤ 0.2
RSCF | 0.211
HLIT | ≤ 0.2
TQTM | ≤ 0.2
QGWV | ≤ 0.2
IADM | ≤ 0.2
ERKG | ≤ 0.2
VYHV | ≤ 0.2
VHMM | ≤ 0.2
AGST | ≤ 0.2
FSGG | ≤ 0.2
NSKF | ≤ 0.2
QMSK | ≤ 0.2
TTNK | ≤ 0.2
ALFR | ≤ 0.2
IKRR | ≤ 0.2
PWMC | ≤ 0.2
HAHG | ≤ 0.2

Variant | one-hybrid fitness for binding parS DNA
RARS | 0.908
LNTH | ≤ 0.2
PCRV | ≤ 0.2
TPPV | ≤ 0.2
IATF | ≤ 0.2
SYPE | ≤ 0.2
NMAS | ≤ 0.2
CGMR | ≤ 0.2
DLNP | ≤ 0.2
KMNK | ≤ 0.2
SEDV | ≤ 0.2
PCWS | ≤ 0.2
TIPR | ≤ 0.2
RYRW | ≤ 0.2
RRWC | 0.739
TYTM | ≤ 0.2
FRMT | ≤ 0.2
QLKH | ≤ 0.2
NHLD | ≤ 0.2
FGDS | ≤ 0.2
NYQS | ≤ 0.2
QNGG | ≤ 0.2
AAMW | ≤ 0.2
RKAM | 0.264

Variant | one-hybrid fitness for binding parS DNA
TSTL | ≤ 0.2
ALEN | ≤ 0.2
RPRS | ≤ 0.2
KWAG | ≤ 0.2
HHHC | ≤ 0.2
LFRM | ≤ 0.2
WYCE | ≤ 0.2
STLI | ≤ 0.2
YKRT | ≤ 0.2
QKPN | ≤ 0.2
HRKC | 0.365
MADP | ≤ 0.2
NIWV | ≤ 0.2
ILLC | ≤ 0.2
SFCD | ≤ 0.2
CHEL | ≤ 0.2
KQVR | ≤ 0.2
RIPQ | ≤ 0.2
DKVG | ≤ 0.2
YVPC | ≤ 0.2
VKAG | ≤ 0.2
RWQY | ≤ 0.2
QKTR | ≤ 0.2
RCQC | 0.994

Variant | one-hybrid fitness for binding parS DNA
GLRC | ≤ 0.2
HHEI | ≤ 0.2
NNQR | ≤ 0.2
WRQS | ≤ 0.2
THAE | ≤ 0.2
RVAM | 0.329
QIEK | ≤ 0.2
VLNC | ≤ 0.2
YAYG | ≤ 0.2
HFCT | ≤ 0.2
QWWC | ≤ 0.2
VPYC | ≤ 0.2
RCDE | ≤ 0.2
TQNA | ≤ 0.2
ESGF | 0.259
RYKR | ≤ 0.2
PFNN | ≤ 0.2
RQHG | 1.01
LRFM | ≤ 0.2
NHTF | ≤ 0.2
LPSP | ≤ 0.2
QHPW | ≤ 0.2
VGFC | ≤ 0.2
RMCT | 0.888

Variant | one-hybrid fitness for binding parS DNA
DDGC | ≤ 0.2
RYMG | 0.971
CWLS | ≤ 0.2
ADVL | ≤ 0.2
DAVG | ≤ 0.2
NSHV | ≤ 0.2
NFLD | ≤ 0.2
HISI | ≤ 0.2
DMAL | ≤ 0.2
TLVV | ≤ 0.2
MLDR | ≤ 0.2
DSWT | ≤ 0.2
WATV | ≤ 0.2
ALAF | ≤ 0.2
HHHV | ≤ 0.2
VVPS | ≤ 0.2
RQYP | ≤ 0.2
SRKS | ≤ 0.2
QKWD | ≤ 0.2
VIRY | ≤ 0.2
VMPA | ≤ 0.2
PAPV | ≤ 0.2
SYLS | ≤ 0.2
MYPF | ≤ 0.2

Variant | one-hybrid fitness for binding parS DNA
IVIG | ≤ 0.2
QQHY | ≤ 0.2
DDGP | ≤ 0.2
KCLS | ≤ 0.2
CKAK | ≤ 0.2
QGTQ | ≤ 0.2
DRML | ≤ 0.2
APLF | ≤ 0.2
WWKR | ≤ 0.2
RVKR | ≤ 0.2
QATT | ≤ 0.2
KLHI | ≤ 0.2
LLLK | ≤ 0.2
PPCD | ≤ 0.2
CAMT | ≤ 0.2
TNCY | ≤ 0.2
RCRP | ≤ 0.2
FARC | ≤ 0.2
PIMQ | ≤ 0.2
DPPT | ≤ 0.2
YSYA | ≤ 0.2
SLLK | ≤ 0.2
YSNW | ≤ 0.2
ANTN | ≤ 0.2

Variant | one-hybrid fitness for binding parS DNA
KEAG | ≤ 0.2
MKLR | ≤ 0.2
NRNP | ≤ 0.2
IPSN | ≤ 0.2
RARE | ≤ 0.2
GKNY | ≤ 0.2
QMTS | ≤ 0.2
PATT | ≤ 0.2
CNSA | ≤ 0.2
HPRG | ≤ 0.2
PHPW | ≤ 0.2
TTNS | ≤ 0.2
SMHR | ≤ 0.2
APCM | ≤ 0.2
MVGC | ≤ 0.2
ISVR | ≤ 0.2
RTAQ | ≤ 0.2
FDGS | ≤ 0.2
CMQR | ≤ 0.2
TKAV | ≤ 0.2
PQKC | ≤ 0.2
LLHF | ≤ 0.2
QTYW | ≤ 0.2
NKKT | ≤ 0.2

Variant | one-hybrid fitness for binding parS DNA
QHWV | ≤ 0.2
IIAR | ≤ 0.2
ISTF | ≤ 0.2
VNDW | ≤ 0.2
AHSR | ≤ 0.2
DKGR | ≤ 0.2
SPQT | ≤ 0.2
EQPS | ≤ 0.2
WKCS | ≤ 0.2
QGER | ≤ 0.2
MIWR | ≤ 0.2
NSIS | ≤ 0.2
QAWQ | ≤ 0.2
RVFA | 0.611
QGIT | ≤ 0.2
RCCV | ≤ 0.2
RWHC | 0.733
MSPL | ≤ 0.2
WDDS | ≤ 0.2
WLSL | ≤ 0.2
SVNY | ≤ 0.2
RGTQ | ≤ 0.2
CLEA | ≤ 0.2
FRFS | ≤ 0.2

Variant | one-hybrid fitness for binding parS DNA
KAMT | ≤ 0.2
RLYK | ≤ 0.2
STAS | ≤ 0.2
SDLM | ≤ 0.2
RVWR | ≤ 0.2
TPVI | ≤ 0.2
VGMS | ≤ 0.2
ECSD | ≤ 0.2
DADT | ≤ 0.2
GWDP | ≤ 0.2
AYVG | ≤ 0.2
RGKI | ≤ 0.2
RNGC | 0.769
CHNC | ≤ 0.2
HTFC | ≤ 0.2
TIHR | ≤ 0.2
ILCQ | ≤ 0.2
QMIC | ≤ 0.2
FPSI | ≤ 0.2
AFYR | ≤ 0.2
LSFR | ≤ 0.2
TYKT | ≤ 0.2
AVVG | ≤ 0.2
PNSR | ≤ 0.2

Variant | one-hybrid fitness for binding parS DNA
HQDK | 0.258
ADTT | ≤ 0.2
WHVF | ≤ 0.2
ALLL | ≤ 0.2
TNPS | ≤ 0.2
IGDM | ≤ 0.2
QYFR | ≤ 0.2
IYVL | ≤ 0.2
ESIK | ≤ 0.2
WPKW | ≤ 0.2
KRYA | ≤ 0.2
YQYG | ≤ 0.2
PAGF | ≤ 0.2
DFLN | ≤ 0.2
MVSV | ≤ 0.2
HKTG | ≤ 0.2
QCEK | ≤ 0.2
ITFY | ≤ 0.2
CLWR | ≤ 0.2
YEDC | ≤ 0.2
ESNE | ≤ 0.2
DRAL | ≤ 0.2
TFFP | ≤ 0.2
PYLP | ≤ 0.2

Variant | one-hybrid fitness for binding parS DNA
VFKG | ≤ 0.2
IIMD | ≤ 0.2
CLDL | ≤ 0.2
ARIC | ≤ 0.2
WGSD | ≤ 0.2
SWRG | ≤ 0.2
PVPW | ≤ 0.2
AERT | ≤ 0.2
PPKM | ≤ 0.2
QYPI | ≤ 0.2
PLGW | ≤ 0.2
GRPN | ≤ 0.2
TKHR | ≤ 0.2
FRKR | ≤ 0.2
YPMK | ≤ 0.2
VNEG | ≤ 0.2
HPHL | ≤ 0.2
RYLL | ≤ 0.2
HPVL | ≤ 0.2
HSNP | ≤ 0.2
NTRM | ≤ 0.2
HCNF | ≤ 0.2
HRFC | 0.213
KATS | ≤ 0.2

Variant | one-hybrid fitness for binding parS DNA
TLDY | ≤ 0.2
QGMN | ≤ 0.2
WSDG | ≤ 0.2
QTLH | ≤ 0.2
GDHA | ≤ 0.2
RLDN | 0.416
DVYE | ≤ 0.2
ATHP | ≤ 0.2
VPGS | ≤ 0.2
PVDN | ≤ 0.2
RKNN | 0.327
RVCK | ≤ 0.2
VLFR | ≤ 0.2
YAMR | ≤ 0.2
LNAS | ≤ 0.2
YIPS | ≤ 0.2
STMN | ≤ 0.2
TPSW | ≤ 0.2
RSGE | ≤ 0.2
TLLD | ≤ 0.2
RVCH | ≤ 0.2
RCRC | 0.863
PTLQ | ≤ 0.2
AMSG | ≤ 0.2

Variant | one-hybrid fitness for binding parS DNA
HKSN | ≤ 0.2
NMWG | ≤ 0.2
LRET | ≤ 0.2
SVRD | ≤ 0.2
VTAQ | ≤ 0.2
SQPH | ≤ 0.2
RRCC | 0.619
RGRH | ≤ 0.2
ILFS | ≤ 0.2
HVER | ≤ 0.2
HKLV | ≤ 0.2
ADKM | ≤ 0.2
LRMS | ≤ 0.2
PAMY | ≤ 0.2
FPMR | ≤ 0.2
DGMC | ≤ 0.2
CWLV | ≤ 0.2
PRHY | ≤ 0.2
